The list shows a part of the results.
Legend:
Experiment in all cases: glycan array binding signal (z-score within array); higher = stronger binding
Conditions in all cases: glycan notation: IUPAC condensed, linker removed
[1] = molecular target: Fuc(a1-2)Gal
Procedure, shortened: (§1)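 The binding signal is a Z-score computed within each array and averaged over linkers. Arrays of the same protein sequence at different concentrations or buffers were also averaged together. Data originate from 3228 arrays in the Consortium for Functional Glycomics database, kept only where the protein sequence was available.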

[2] = molecular target: Fuc(a1-2)Gal(b1-3)GalNAc
Procedure, shortened: as §1

[3] = molecular target: Fuc(a1-2)Gal(b1-3)GalNAc(a1-3)[Fuc(a1-2)]Gal(b1-4)Glc
Procedure, shortened: as §1

[4] = molecular target: Fuc(a1-2)Gal(b1-3)GalNAc(a1-3)[Fuc(a1-2)]Gal(b1-4)GlcNAc
Procedure, shortened: as §1

[5] = molecular target: Fuc(a1-2)Gal(b1-3)GalNAc(b1-3)Gal
Procedure, shortened: as §1

[6] = molecular target: Fuc(a1-2)Gal(b1-3)GalNAc(b1-3)Gal(a1-4)Gal(b1-4)Glc
Procedure, shortened: as §1

[7] = molecular target: Fuc(a1-2)Gal(b1-3)GalNAc(b1-4)[Neu5Ac(a2-3)]Gal(b1-4)Glc
Procedure, shortened: as §1

[8] = molecular target: Fuc(a1-2)Gal(b1-3)GlcNAc
Procedure, shortened: as §1

[9] = molecular target: Fuc(a1-2)Gal(b1-3)GlcNAc(b1-2)Man(a1-3)[Fuc(a1-2)Gal(b1-3)GlcNAc(b1-2)Man(a1-6)]Man(b1-4)GlcNAc(b1-4)GlcNAc
Procedure, shortened: as §1

[10] = molecular target: Fuc(a1-2)Gal(b1-3)GlcNAc(b1-2)Man(a1-3)[Fuc(a1-2)Gal(b1-3)GlcNAc(b1-2)Man(a1-6)]Man(b1-4)GlcNAc(b1-4)[Fuc(a1-6)]GlcNAc
Procedure, shortened: as §1

[11] = molecular target: Fuc(a1-2)Gal(b1-3)GlcNAc(b1-3)Gal(b1-4)Glc
Procedure, shortened: as §1

[12] = molecular target: Fuc(a1-2)Gal(b1-3)GlcNAc(b1-3)GalNAc
Procedure, shortened: as §1

[13] = molecular target: Fuc(a1-2)Gal(b1-3)GlcNAc(b1-3)[Fuc(a1-2)Gal(b1-3)GlcNAc(b1-6)]GalNAc
Procedure, shortened: as §1

[14] = molecular target: Fuc(a1-2)Gal(b1-3)GlcNAc(b1-3)[Fuc(a1-3)[Gal(b1-4)]GlcNAc(b1-6)]Gal(b1-4)Glc
Procedure, shortened: as §1

[15] = molecular target: Fuc(a1-2)Gal(b1-3)GlcNAc(b1-3)[Gal(b1-4)GlcNAc(b1-6)]Gal(b1-4)Glc
Procedure, shortened: as §1

[16] = molecular target: Fuc(a1-2)Gal(b1-3)GlcNAc(b1-3)[Neu5Ac(a2-6)Gal(b1-4)GlcNAc(b1-6)]Gal(b1-4)Glc
Procedure, shortened: as §1

[17] = molecular target: Fuc(a1-2)Gal(b1-3)GlcNAc6S
Procedure, shortened: as §1

[18] = molecular target: Fuc(a1-2)Gal(b1-3)[Fuc(a1-4)]GlcNAc
Procedure, shortened: as §1

[19] = molecular target: Fuc(a1-2)Gal(b1-3)[Fuc(a1-4)]GlcNAc(b1-2)Man(a1-3)[Fuc(a1-2)Gal(b1-3)[Fuc(a1-4)]GlcNAc(b1-2)Man(a1-6)]Man(b1-4)GlcNAc(b1-4)GlcNAc
Procedure, shortened: as §1

[20] = molecular target: Fuc(a1-2)Gal(b1-3)[Fuc(a1-4)]GlcNAc(b1-2)Man(a1-6)[Fuc(a1-2)Gal(b1-3)[Fuc(a1-4)]GlcNAc(b1-2)Man(a1-3)]Man(b1-4)GlcNAc(b1-4)[Fuc(a1-6)]GlcNAc
Procedure, shortened: as §1

[21] = molecular target: Fuc(a1-2)Gal(b1-3)[Fuc(a1-4)]GlcNAc(b1-3)[Fuc(a1-3)[Gal(b1-4)]GlcNAc(b1-6)]Gal(b1-4)Glc
Procedure, shortened: as §1

[22] = molecular target: Fuc(a1-2)Gal(b1-3)[Fuc(a1-4)]GlcNAc(b1-3)[Gal(b1-4)GlcNAc(b1-6)]Gal(b1-4)Glc
Procedure, shortened: as §1

[23] = molecular target: Fuc(a1-2)Gal(b1-4)Glc
Procedure, shortened: as §1

[24] = molecular target: Fuc(a1-2)Gal(b1-4)Glc6S
Procedure, shortened: as §1

[25] = molecular target: Fuc(a1-2)Gal(b1-4)GlcNAc
Procedure, shortened: as §1

[26] = molecular target: Fuc(a1-2)Gal(b1-4)GlcNAc(b1-2)Man
Procedure, shortened: as §1

[27] = molecular target: Fuc(a1-2)Gal(b1-4)GlcNAc(b1-2)Man(a1-3)[Fuc(a1-2)Gal(b1-4)GlcNAc(b1-2)Man(a1-6)]Man(b1-4)GlcNAc(b1-4)GlcNAc
Procedure, shortened: as §1

[28] = molecular target: Fuc(a1-2)Gal(b1-4)GlcNAc(b1-2)Man(a1-3)[Fuc(a1-2)Gal(b1-4)GlcNAc(b1-2)Man(a1-6)]Man(b1-4)GlcNAc(b1-4)[Fuc(a1-6)]GlcNAc
Procedure, shortened: as §1

[29] = molecular target: Fuc(a1-2)Gal(b1-4)GlcNAc(b1-2)[Fuc(a1-2)Gal(b1-4)GlcNAc(b1-4)]Man(a1-3)[Fuc(a1-2)Gal(b1-4)GlcNAc(b1-2)Man(a1-6)]Man(b1-4)GlcNAc(b1-4)GlcNAc
Procedure, shortened: as §1

[30] = molecular target: Fuc(a1-2)Gal(b1-4)GlcNAc(b1-3)Gal(b1-4)GlcNAc
Procedure, shortened: as §1

B1: CCL1 (Coprinopsis cinerea) (protein)
chain: MDTQAKPPAGRYVIYNRVLSPNGEKLALTYPGYQREALTLTPLHHSANQIWILNNWDATTSSLTPETARNTQVGWGSGNVPIVLPPGNYVWTLASSAGGYIIQDGGKTVYWNAGEAVANTKVSIGGDNGLQARWIFERV
[1]
  glycan array binding signal (z-score): -0.154
[2]
  glycan array binding signal (z-score): -0.156
[3]
  glycan array binding signal (z-score): -0.129
[4]
  glycan array binding signal (z-score): -0.117
[5]
  glycan array binding signal (z-score): -0.113
[6]
  glycan array binding signal (z-score): -0.136
[7]
  glycan array binding signal (z-score): -0.158
[8]
  glycan array binding signal (z-score): -0.157
[9]
  glycan array binding signal (z-score): -0.116
[10]
  glycan array binding signal (z-score): -0.127
[11]
  glycan array binding signal (z-score): -0.15
[12]
  glycan array binding signal (z-score): -0.083
[13]
  glycan array binding signal (z-score): -0.118
[14]
  glycan array binding signal (z-score): 0.234
[15]
  glycan array binding signal (z-score): -0.158
[16]
  glycan array binding signal (z-score): -0.139
[17]
  glycan array binding signal (z-score): -0.097
[18]
  glycan array binding signal (z-score): -0.14
[19]
  glycan array binding signal (z-score): -0.006
[20]
  glycan array binding signal (z-score): -0.148
[21]
  glycan array binding signal (z-score): 0.089
[22]
  glycan array binding signal (z-score): -0.144
[23]
  glycan array binding signal (z-score): -0.127
[24]
  glycan array binding signal (z-score): -0.124
[25]
  glycan array binding signal (z-score): -0.142
[26]
  glycan array binding signal (z-score): -0.125
[27]
  glycan array binding signal (z-score): -0.147
[28]
  glycan array binding signal (z-score): -0.117
[29]
  glycan array binding signal (z-score): -0.13
[30]
  glycan array binding signal (z-score): -0.14

— the supplement of paper PMC8728848
